Data reported in the supplement of paper PMC12632987.
The full ranking holds about 2,300 sequences; the median of “median log2 fold change of GCK-ALFA target abundance (FLAG IP / Myc IP barcode read proportion)” is about 0.095, and the lowest 2% start at about -0.47. This is one part of the list.

B1: LC3A_28_1115 (protein)
chain: SAIDENLAAARAEARAAAAAGEPVVVTIRVRATDSEEDIDRVIAELREIADILKDVKDAAIIIDLDGEIPEEHLNRLMDEGDEIEEKYPNITVIFALDEN
B2: LC3A_3_1878 (protein)
chain: MDERIEETIKLLKEAGKSEETIELFKEVMELLKERGWYEAAETLIEEVKKLIDAPEEILLEFLEEVLELIKNEDLSEEELIKRIKELARLARNESEIIEL
B3: LC3A_45_1949 (protein)
chain: MWRATVDVLVPEEEFEKAVEVLREEAERLEKERGVKVEIDEEALKKAREEAKENGEGLITVNVYHEDKDVALDAADEISDRLEEELSSKVATIISVEEVP
B4: LC3A_28_921 (protein)
chain: MTAEEIIAEIKKIADEAIAKGEDAFIEVKIDSSHTVEEAEAIMEEIEEEVKKLNEAGLKVDIVIDLDNVSQEVLDAVAERAEEIEKKYPNVNVVIALDEE
B5: LC3A_free_8_2530 (protein)
chain: NVQEMVNLALEELDRLEELAVKKAKELGLSRTDILELELVIGSAKIEIIEASDKSKEEILKLFNEELDEIVEEAAKYGEELEKAVREKAEEARKRMEEAL
B6: LC3A_132_283 (protein)
chain: DAAKTAALIAKVKALFAAAKAAADDDEKTAALLKEAKAYLKEVEATETPETQAAVFAAAADEYDALAALLDAAGKEDLALEADSLSIEAASLSIRAEKKI
B7: LC3A_45_1998 (protein)
chain: MYEITVDLLGPKEKVEKAVKLIKETAKKLSEETGIKIEIDEELAKASFEASRDEEEVYVRIKITIDGDEEDANKLVQELDKVLEEVGPGLSSIISVEEIE
B8: LC3A_132_253 (protein)
chain: SKELLEKALKELKEILDKIVELLQAGKDPWPAIKELYEKALEYAKKLSLEETEKLAEEVEAYAEKLFAERLDPNNEEARRALEHIEMLLESVLIEKELRS
B9: LC3A_28_1085 (protein)
chain: GKLEENLKKAIEEAKEAAAKGEEVVITITVDDTATEEDLEKALKTMEEIAEITKDLPRTTIIVDLNGSRQQEKADIFGEKADELEKKYPHLTVIIALDEE
B10: LC3A_28_1219 (protein)
chain: MKVEEEIKKAREELEKAKAAGEEALIRVEVTGSFTVEEAEELMEKLRELVKEAKDLPAVSIVIDVDGKVSQEVIDKIAEKADEIEEEFPNVTVLIALDEE
B11: LC3A_3_1728 (protein)
chain: MEEKLAAYEARIAALGLSPEVAAAALRTVRALLEKGLEEQADRLLEVLAENKDADEERLLAHLDDILRLLETDKSSKEELAKKVAEEIEVFANDGEIEEL
B12: LC3A_16_528 (protein)
chain: RAEARRALELLLAADRALETDEAAFIAAVAQLDPEAAKRAEAARGKPDARGTFATILRELAEAFRARYGDVLTPEELQTVENIATAAEMEAELTAVRLEE
B13: LC3A_3_1839 (protein)
chain: LEEEVERALKKLKEAGHSEEALEAVRETAEALKEKGYEEALREFIRLMEEMVDLPSELVKELAEEVLELVEEEDLSEEELTERIRELARLFRNESEIEEL
B14: LC3A_28_844 (protein)
chain: SKTEKDIKEALERAKRAAEEGKSEVITIKVYKGDTEEEINKIIETLEEIAEILKDLPNQAILIDFEEKIDEEHQNKIIDKAEEIEKKYPNITVIIALPEE
B15: LC3A_free_39_2181 (protein)
chain: SEEELEETKEEILELAAEEGEEAREVAEELLELVEGNLELAETILEGLKEIREAGGDVLAALQDLLALAKEMKAAGKSWEELLKAIEETLQDHLNLIPLD
B16: LC3A_45_2001 (protein)
chain: MWEITVDLLGPREKVEKAVELILKKVKEFSKKTGIKIEVNEEKAKASFEASKDEEEVYVEIEIKIDGDKEDADALVKELDKVLEEVGPGLSSIISVEEIE
B17: LC3A_28_679 (protein)
chain: SALEKEIEEALKKAKEAAKKGEPTVITIKVPGDATQEEIDKFIKALKEIAEILKDVKGAAIVIDLSSKLSQEHRDKIIDAAEEINEKYPNVTVIIALEEK
B18: LC3A_free_39_2249 (protein)
chain: SEEELEEALRRARELAETLPPEEREAFEELLELVKDNPEAVRLVTEGVERLRAEGGDVLAFLKEAKKLVEEMKKAGKSEEEIVEELKELVEDHLNLIPLD
B19: LC3A_17_585 (protein)
chain: SEEIKKEIEKLLEELKKLVKKAKEYGIPEAKEIEKLLKEAEKALKEGKLKEAAELLAKAADLLADAFDEIEEEKGDEASLLSMEASGLELEAIRLLLKLE
B20: LC3A_17_532 (protein)
chain: SEELREEVERLLKELEEVGEEAIKMIPEYKEKIEKMVKEAREKLEAGDLRGAVEKIEEAAREIADLLDETEHEDEIKKENLIMEANGIALEAIGIGLKLE
B21: LC3A_3_1689 (protein)
chain: MEELVEEVLKEAEENGLSEEALEALKRLLEALKERGYLEAIKTVLEELKKLKDVSSEKIKEMFEEILELVENEDLSEEEVVKKIKEEATVLLNDNEIIEL
B22: LC3A_28_1086 (protein)
chain: SELEANLEAALAEAREAAAKGEEVVITITVKDTATEEDLERALKTMEEIAEITKDLPRTTIIVDLDGEKQQEKADIFGKHADELEKKYPHLTVIIALDEE
B23: LC3A_3_1619 (protein)
chain: LEERVEEALKELKEAGASEEVLKAFKELAEELLEKGYYEALETLIEEMREIKDLPNEIILDALEEVLEVVKTEDLNEEELIERIKEIFRTARNESEIIEL
B24: LC3A_28_795 (protein)
chain: AEIDATLAAARAEARAALARGEEAVIEIRVPRGTTVEDARRIAAGLREIAEEAAGLPSLTFVIDLERGVSQEVLDVLADGGEEIEERYPNVSVVIALEEE
B25: LC3A_147_424 (protein)
chain: YKVTVEAYFKVKKDGKEALKAIEELAEELKKEGAKKVKIEKIEDKEDGTIYVKVTIESIKETKEEAQAFADKVIDRFEELEKKHKDTLKLVAISVSIEKA
B26: LC3A_132_237 (protein)
chain: AQAKLEAIKAQIDAQLAALRANLDDLAAVQAQIAAIEALLEQAKKELSPEDFLKLASDTSDKLDAIAEEAEAAGKAEVAALVNNLSMYADGLAIEAELKI
B27: LC3A_3_1624 (protein)
chain: MEEELKKTIEELKEAGWSEETLEKLKETVKLLKEKGYEEAAKTLLEEMRELKDAPSEILLDMLEEVKKVVETENLNEEELIKRIKEIARTARNESEIIEL
B28: LC3A_3_1541 (protein)
chain: LEEELEELLKELKEAGASEETLEAVRRAYEALLERGYEEAAKTFLEEMRELLDAPSELLLDFANEVLELVETSDLDEEELVKEIKEIARTIRNESEIIEL
B29: LC3A_28_1005 (protein)
chain: SELEKQIEEALAKAKEAAKKGEPVVITLKVGGDATEEDIEKLIEAMEEIAEILKDIKGSAIIVDLDSKLSQEHKDKIIDKGEEIEKKYPNITVIIALDED

Target: MAP1LC3A, Q9H492
Assay: median log2 fold change of GCK-ALFA target abundance (FLAG IP / Myc IP barcode read proportion) (log2 ratio); each designed protein is fused to an ALFA-tag nanobody in HEK293 cells to bring the named protein to FLAG-tagged glucokinase (GCK); Myc marks an untargeted standard; higher = target protein stabilised (more abundant)
Details: target protein: 3xFLAG-MCP-GCK-ALFA reporter; HEK293 landing pad (RPLP)
How it was run: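 HEK293 landing-pad cells received a recombined binder library fused to the ALFA nanobody and were induced with 2 μg mL^−1 doxycycline, then transfected with a plasmid encoding a FLAG-tagged target and a Myc-tagged standard. Lysates were collected after 48 h for anti-FLAG and anti-Myc immunoprecipitation, and the circular RNA barcodes were reverse transcribed, amplified and sequenced. Target abundance for each binder is the median log2 ratio of FLAG to Myc barcode read proportions. Barcodes had to reach a proportion of at least 10^−7 in both replicates, each binder needed at least 3 barcodes per replicate, a pseudocount of 10^−6 was applied, and the two replicates were pooled.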

Row | Binder | median log2 fold change
1 | B1 | -0.341
2 | B2 | 0.199
3 | B3 | 0.0651
4 | B4 | -0.0386
5 | B5 | 0.118
6 | B6 | 0.184
7 | B7 | 0.273
8 | B8 | 0.0444
9 | B9 | 0.034
10 | B10 | 0.0823
11 | B11 | 0.298
12 | B12 | 0.328
13 | B13 | 0.121
14 | B14 | -0.471
15 | B15 | 0.0275
16 | B16 | 0.205
17 | B17 | 0.0231
18 | B18 | 0.2
19 | B19 | -0.00293
20 | B20 | 0.226
21 | B21 | 0.245
22 | B22 | 0.0338
23 | B23 | 0.0565
24 | B24 | -0.011
25 | B25 | -0.463
26 | B26 | 0.233
27 | B27 | 0.327
28 | B28 | 0.0862
29 | B29 | -0.041
